The RNAGym collection of RNA variant scans (doi:10.1093/nar/gkz1192)
Read counts are not given, so values of variants with three or more changes are uncertain.

B1: CPEB3 Ribozyme (parent)
chain: UAACAGGGGGCCACAGCAGAAGCGUUCACGUCGCAGCCCCUGUCAGAUUCUGGUGAAUCUGCGAAUUCUGCUGUAUAUCUC

Variants of: B1
Assay: self-cleavage, relative activity (ratio to wild type); higher = more cleavage; in vitro, sequencing
How it was run: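 Relative activity was defined as the cleaved/total read fraction for a variant divided by the same fraction for the unmutated ribozyme. CPEB3 self-cleaving ribozyme libraries were made by rounds of error-prone PCR, barcoded, and transcribed in vitro with T7 RNA polymerase for 5 hours at 37°C, and cleavage ran through transcription plus a 15 min DNase I step before EDTA. Illumina sequencing of template-switched reverse transcripts gave the reads, and DNA sequencing mapped the barcodes. Averages come from three batches, using variants with at least 5 reads.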

Variant | self-cleavage
A45C U49C U60C A65G U69A U80C | 0.14
A45C U49C U72C | 0.09
A45C U60A A64U | 0.19
A45C U67C G70A U78C | 0.14
A45C U72A U74G | 0.54
A45C U72C C81A | 0.78
A45C U78C U80A | 0.23
A45G A47G A65G U80C | 0.44
A45G A47G U54G | 0.29
A45G A47G U58A | 0.17
A45G A47G U72C | 0.63
A45G A47U G53A | 0.3
A45G A47U U48C A75C | 0.19
A45G A56G A57G U69C | 0.18
A45G A56G C59G U72C A77G | 0.13
A45G A56G U69A | 0.37
A45G A56G U76C | 0.42
A45G A57G C59A U67A | 0.2
A45G A57G U60C A65U C71G | 0.16
A45G A57G U67C U69A | 0.33
A45G A57G U72A | 0.82
A45G A64G A75G | 0.39
A45G A64U U67C U69G | 0.24
A45G A77G U80C | 0.65

Variant | self-cleavage
A45G C50A U67A | 0.21
A45G C50U U58C U60A | 0.12
A45G G46A A77U | 0.27
A45G G53A U60C A65G U67C | 0.33
A45G G53A U80A | 0.97
A45G G70A U74C | 0.77
A45G G73U U78C U80C | 1.13
A45G U48C A57C G73A | 0.59
A45G U48C C50U A56G | 0.38
A45G U48C U49C A64C U72C | 0.11
A45G U48C U51A | 0.27
A45G U48C U60C U66C U72G U80A | 0.09
A45G U48G U51A U60A | 0.15
A45G U49A U69A U72A | 0.08
A45G U49C U60C | 0.71
A45G U49G U80A | 0.16
A45G U51A A57U U66C | 0.09
A45G U51A U60A | 0.51
A45G U54A U60C A64U | 0.54
A45G U54C A64U U69A | 0.26
A45G U54C U69C | 0.18
A45G U58C U69C | 0.08
A45G U60A A75U U78C | 0.45
A45G U60A G63A U78A | 0.17

Variant | self-cleavage
A45G U60A U72C | 0.72
A45G U60C U72A U76A | 0.98
A45G U67A C79G | 0.55
A45G U67A C81U | 0.23
A45G U67A U78C | 0.4
A45G U67C U74A | 0.25
A45G U67C U80A | 0.38
A45G U69A A77U | 0.39
A45G U69A C79G | 0.74
A45G U69A U72C | 0.25
A45G U72C A75U | 1.04
A45G U74C U76C | 1.12
A45G U74C U80C | 1.06
A45G U78C U80A | 1.08
A45U A47G A56G | 0.13
A45U A47G C68A | 0.14
A45U A47U U80C | 0.22
A45U A56G U72C | 0.3
A45U A57C A65G U72A | 0.08
A45U A57G C59U U72C A75C | 0.12
A45U A57G U80C | 0.25
A45U A64C U72C | 0.28
A45U A64G A65U U72C | 0.13
A45U A64G A77U | 0.46

Variant | self-cleavage
A45U A64G U72C | 0.38
A45U A65G G73A | 0.46
A45U A65G U66C | 0.15
A45U C50A A65G | 0.15
A45U G46U A56U U72C | 0.12
A45U G52A U72C | 0.28
A45U G53A G55A | 0.29
A45U G53A U80G | 0.9
A45U G55A A57G U66C C68U | 0.1
A45U G55C A75U | 0.17
A45U G61C A64U | 0.17
A45U U48C U60C | 0.23
A45U U48C U66C U80C | 0.2
A45U U49A A56G A57G G63A U80A C81U | 0.02
A45U U49C U54A G61U | 0.16
A45U U49C U60A | 0.42
A45U U49C U80C | 0.43
A45U U51A U60C U74C | 0.6
A45U U51C U54A | 0.65
A45U U51C U54G | 0.2
A45U U51G A56U U80C | 0.1
A45U U54A A57G U67C U69A G73C | 0.09
A45U U54C U67C | 0.32
A45U U58C U66C U74C | 0.13

Variant | self-cleavage
A45U U58C U67C | 0.17
A45U U60A U72A U78C C79U | 0.81
A45U U60A U78A | 1.2
A45U U66C U76C | 0.27
A45U U67C U72G | 0.29
A45U U69C U78C | 0.36
A45U U72C U74C | 0.59
A45U U76C U78C | 0.54
G46A A47G U69A | 0.16
G46A A64C U78C | 0.14
G46A A64G U78C | 0.13
G46A A64U U69C | 0.15
G46A U48C U72G A77G | 0.14
G46A U69A U72C | 0.34
G46A U72C U76A | 0.16
G46C U60G U76C | 0.23
G46U U51A A64G | 0.1
A47C A56G U67A G70U | 0.05
A47C U48C U74C | 0.42
A47C U49A A57G A64U | 0.15
A47G A56G A57G U72G U80C | 0.23
A47G A56G C59A U69C | 0.27
A47G A56G U60A A64G | 0.23
A47G A56G U67G | 0.44

Variant | self-cleavage
A47G A56G U78A | 0.76
A47G A56U U74C | 0.52
A47G A56U U76C | 0.55
A47G A57G U60C U72C | 0.1
A47G A57G U80C | 0.57
A47G A64U U78G | 0.16
A47G A65C U74C C79A | 0.12
A47G C59A U69A | 0.38
A47G C59U U80C | 0.39
A47G C62A U67C U76C | 0.41
A47G C62U U69C | 0.3
A47G C68A U80A | 0.37
A47G G55A U76A | 1.08
A47G G63U U69C | 0.42
A47G G73A C81U | 1.31
A47G U48C U58C A64G | 0.49
A47G U48C U67C | 0.15
A47G U48C U72C | 0.45
A47G U49A A56G A57U | 0.15
A47G U49A C50U A64C U80C | 0.14
A47G U49A U51A C62U | 0.07
A47G U51A U80C | 0.67
A47G U51C A56U | 0.23
A47G U51C C68U U76C | 1.04

Variant | self-cleavage
A47G U51C U66C | 0.34
A47G U51C U67A | 0.42
A47G U51C U76C | 1.17
A47G U51G U78A | 0.35
A47G U54A A65G | 0.16
A47G U54A C59U | 0.99
A47G U54C U80A | 1.2
A47G U58A U60C | 0.27
A47G U58C U67C | 0.33
A47G U60C A75U | 0.35
A47G U60C G63U U72A | 0.28
A47G U60C U78C | 0.34
A47G U60C U80C | 0.32
A47G U66A U67C | 0.49
A47G U67C U80A | 0.22
A47G U74C A75G | 1.27
A47U A56G U58C | 0.32
A47U A56U U76A | 0.14
A47U A57U G73A | 0.77
A47U A64G U78C | 0.3
A47U G53A A65G U66C | 0.17
A47U G55A A56G G70A | 0.1
A47U U48A U80C | 0.15
